Molecules are shown by their SMILES. In all, about 150,000 compounds went through this assay and about 540 (0.36%) showed an effect of 50% or more. This is one part of the list.

The subject of this assay is Plasmodium falciparum. Briefly: Primary screen in NF54 nanoGlo assay, in single point, at 2uM, 72h; a lower Z score goes with more inhibition. The format is functional, Erythrocyte. The note with it: timepoint 72 hour.
Turning to `CC(C)(C)OC(=O)c1ccc(CN)cc1`, the “% Inhibition” value was found to be 1% and the Z score was -0.14.
The corresponding values for `CC(C)n1cc(C(C)(C)NC(=O)Cn2ncn(C)c2=O)nn1` are -19% and 2.56.
Consider `Cc1ccc(F)cc1NC(=O)N1C[C@H]2CCN(C)[C@H]2C1`, for which the “% Inhibition” value is given as -6% and the Z score came out at 0.74.
For the compound `COc1ccc(CNc2cn[nH]c(=O)n2)cc1`, the “% Inhibition” value is listed as -14% and the Z score amounted to 1.84.
In the case of `C[C@H]1c2cccn2CCN1CCC(=O)NC(=O)NC1CCCC1`, the “% Inhibition” value is -4% and the Z score worked out at 0.48.
As to `CC(C)(C)C(=O)N1CCc2c(c(C(=O)O)nn2Cc2ccc(F)cc2)C1`, the “% Inhibition” value was -8% and the Z score came to 1.63.
In the case of `Cc1n[nH]c([C@@H]2CCN(C(=O)c3cnc[nH]3)CCN2C(=O)Cc2ccccc2)n1`, the “% Inhibition” value is 0% and the Z score is 0.08.
The matching figures for `CCOc1ccc(F)c(NC(=O)N2CC3(CC=CC3)[C@@H]2C(C)C)c1F`: -8% and 1.52.
Consider `Cc1cncnc1-c1noc(-c2ccco2)n1`, for which the “% Inhibition” value is -2% and the Z score turned out to be 0.26.
For `c1coc(CN2CC[C@H](c3ccnc(-c4ccc5c(c4)OCO5)c3)C2)c1`, the “% Inhibition” value is on record as -17% and the Z score is given as 1.69.
Consider `CC(=O)N[C@H]1CN(c2ncccc2C(N)=O)C[C@@H]1c1ccc(C)cc1`, for which the “% Inhibition” value was -7% and the Z score came to 1.34.
On to `CCCS(=O)(=O)N1CC[C@H]2C(=O)N(Cc3ccc(F)cc3)CCN2CC1`, for which the “% Inhibition” value is listed as -18% and the Z score amounted to 2.47.
The corresponding values for `O=C(Cc1ccsc1)N1CCC[C@H](c2[nH]ncc2-c2ccccc2)C1` are -6% and 1.22.
The corresponding values for `CN(C(=O)[C@@H]1CCCCN1S(=O)(=O)c1ccc(Cl)s1)c1ccccc1` are -13% and 1.84.
In the case of `CC(C)CCn1ccc(NC(=O)N2CCC(c3ccc4cccnc4n3)CC2)n1`, the “% Inhibition” value came out at 2% and the Z score was -0.2.
As for `NC(=O)[C@@H]1CCCCN1C(=O)Cc1ccc(-c2ccccc2)cc1`, the “% Inhibition” value is -3% and the Z score came out at 0.41.
As for `O=C(CC[C@@H]1NC(=O)N(Cc2ccc3c(c2)OCO3)C1=O)Nc1ccc2c(c1)OCCO2`, the “% Inhibition” value came out at 1% and the Z score is listed as -0.14.
Take `CN(C)c1ccccc1-c1ccc(CC(=O)O)cn1`: the “% Inhibition” value is on record as -3% and the Z score is 0.51.
`O=C(NCCc1ccccc1)[C@@H]1C[C@H](n2cnnn2)CN1C/C=C/c1ccccc1`: the “% Inhibition” value is listed as -6% and the Z score is on record as 0.78.
Turning to `Cn1c(-c2ccc3c(c2)OCO3)cnc1NCc1cccc(Cl)c1`, the “% Inhibition” value stood at 37% and the Z score is -4.73.
Take `Cc1n[nH]c(C)c1CCN(C)Cc1ccc([C@@H]2CCCO2)s1`: the “% Inhibition” value is -6% and the Z score is given as 0.53.
Regarding `O=C(Nc1sc2c(c1C(=O)N1CCOCC1)CCCCC2)c1ccncc1`, the “% Inhibition” value is -12% and the Z score was found to be 1.54.
Turning to `CN1CCCCCCN(C(=O)Nc2ccccc2)CCC1=O`, the “% Inhibition” value was -16% and the Z score worked out at 2.15.
For `O=C(NCC(Cc1ccccc1)Cc1ccccc1)N1CC[C@H](O)C(F)(F)C1`, the “% Inhibition” value is given as -4% and the Z score is 0.81.
For `COc1cc(CN2CCN(C(=O)CCNC(=O)c3ccccc3C)CC2)cc(OC)c1`, the “% Inhibition” value is -1% and the Z score was 0.09.
`C[C@@H](C1CC1)N(CC(F)(F)F)C(=O)c1ccc2nnnn2c1`: the “% Inhibition” value turned out to be 6% and the Z score is reported as -0.94.
As to `COc1ccc(-c2nnc(C)o2)cc1NC(=O)C[C@H](C)n1cccn1`, the “% Inhibition” value was -1% and the Z score was determined as 0.12.
For the compound `CC1(C)C(NS(=O)(=O)N2CCCC2)C(C)(C)C1NS(=O)(=O)N1CCCC1` (stereo not drawn), the “% Inhibition” value is 10% and the Z score is -1.55.
The corresponding values for `CNS(=O)(=O)c1cc(C(=O)NCC2(c3ccccc3)CC2)c(C)o1` are 9% and -1.28.
In the case of `Cc1cc(CN2CCC3(CCC(=O)N3C)CC2)[nH]n1`, the “% Inhibition” value is listed as -6% and the Z score turned out to be 1.27.
In the case of `CCOc1cccc(CNC(=O)[C@H]2c3ccccc3CC(=O)N2CC)c1`, the “% Inhibition” value is on record as 0% and the Z score was -0.04.
With `Cc1c(C(C)N[C@@H]2CCCC[C@H]2NC(=O)OC(C)(C)C)cnn1C` (stereo partly drawn), the “% Inhibition” value is -8% and the Z score was 1.01.
Turning to `CCn1c(CN2CCN(C(=O)c3ccco3)CC2)nc2cc(S(=O)(=O)N3CCCCC3)ccc21`, the “% Inhibition” value is reported as -13% and the Z score was found to be 2.53.
`C[C@H]1C(=O)N(C)C[C@H](CO)N1S(=O)(=O)c1ccc(F)cc1`: the “% Inhibition” value was -14% and the Z score was 1.68.
`COc1ccccc1N1CCN(c2ncccc2CNc2cccc(C#N)n2)CC1`: the “% Inhibition” value is reported as 13% and the Z score is -1.84.
The corresponding values for `Cc1ccc(NC(=O)Cn2nc3c(N4CCCCCC4)nccn3c2=O)c(Cl)c1` are -21% and 2.03.
For the compound `C[C@@H](C(=O)N(Cc1ccccc1)C1CCCC1)n1cccn1`, the “% Inhibition” value is -3% and the Z score came to 0.43.
Consider `COc1c(Cl)cc(NC(=O)N(C)Cc2nccs2)cc1Cl`, for which the “% Inhibition” value was found to be 9% and the Z score is recorded as -0.88.
The matching figures for `CCNC(=O)CCC(=O)NC[C@H](Cc1ccccc1)C(=O)OCC`: -8% and 1.27.
Take `Cc1cc(NC(=O)CN2CCCCCC2CC(O)c2ccco2)no1` (stereo not drawn): the “% Inhibition” value is given as -6% and the Z score was found to be 0.81.
Regarding `CC1CCN(C(=O)c2cccc3cn[nH]c23)CC1`, the “% Inhibition” value is 0% and the Z score was -0.03.
As to `CCn1cc(-c2c(-c3ccccc3)ncn2CCNc2cccnc2)c(C)n1`, the “% Inhibition” value is given as -16% and the Z score stood at 1.54.
As to `O=S(=O)(NCCN1CCCCCCC1)c1ccccc1`, the “% Inhibition” value is -1% and the Z score stood at 0.09.
With `COc1cc2c(cc1OC)N(S(=O)(=O)c1ccc(C)cc1)CCCC2=O`, the “% Inhibition” value was -11% and the Z score is 1.32.
Turning to `COc1cccc([C@H]2OCCN(Cc3ccccc3)C(=O)c3[nH]c4ccccc4c32)c1`, the “% Inhibition” value is 34% and the Z score is reported as -3.89.
Regarding `C#CCCC1(CCC(=O)N2CCO[C@H](c3c(F)cccc3Cl)C2)N=N1`, the “% Inhibition” value is reported as -5% and the Z score was found to be 0.61.
For the compound `COc1cc(OC)nc(N2CCN3C(=O)OC[C@H]3C2)n1`, the “% Inhibition” value is -4% and the Z score was 0.66.
For `CCc1cccc(C)c1NC(=O)Cn1cc(-c2ccccc2)c2ncn(CC)c(=O)c21`, the “% Inhibition” value came out at 4% and the Z score is listed as -0.57.
The corresponding values for `CCNC(=O)C(C)(C)CNC(=O)C(CC)N1CCOC(CC)C1` (stereo not drawn) are -2% and 0.28.
The corresponding values for `CC(C)CNC(=O)[C@H](C)N(C)Cc1ccc(Cl)c(Cl)c1` are 2% and -0.26.
Regarding `CCC[C@H]1CN(c2nc3cc(C)ccc3o2)C[C@@H]1NS(C)(=O)=O`, the “% Inhibition” value was 12% and the Z score was -1.28.
Turning to `Cc1noc(C(C)C)c1NC(=O)c1ccc2[nH]cnc2c1`, the “% Inhibition” value turned out to be 1% and the Z score is -0.16.
For `CN(C)[C@H]1CCN(C(=O)c2ccc(C(=O)c3cccc(O)c3)cc2)C1`, the “% Inhibition” value is -7% and the Z score came to 0.75.
For the compound `C=CCCCS(=O)(=O)NCc1nnc2ccc(Cl)cn12`, the “% Inhibition” value was 13% and the Z score is given as -1.46.
For the compound `O=C(NCc1cccnc1)c1cc(F)c[nH]1`, the “% Inhibition” value is 10% and the Z score is on record as -1.26.
Regarding `O=c1cc(C2CC2)ncn1CC1CCN(c2nc3ccc(F)cc3o2)CC1`, the “% Inhibition” value is reported as -12% and the Z score was found to be 1.77.
Regarding `O=C1c2ccccc2C(=O)N1c1ccc(S(=O)(=O)N(CCO)c2ccccc2)cc1`, the “% Inhibition” value is reported as -37% and the Z score is recorded as 4.39.
Consider `Cc1noc(-c2cncnc2NC2CCCC2)n1`, for which the “% Inhibition” value is 1% and the Z score is -0.14.
With `CCN1C[C@@H](C(=O)NCC2(COc3ccccc3)CC2)CCC1=O`, the “% Inhibition” value is listed as -6% and the Z score came out at 1.22.
The corresponding values for `COc1ccccc1-c1cn2c(C(=O)N3CCCCC[C@@H]3CO)csc2n1` are -9% and 1.25.
On to `CN(C)c1ncc(C(=O)NCc2ccc3c(c2)OCO3)cn1`, for which the “% Inhibition” value was -2% and the Z score is on record as 0.28.
For the compound `O=S(=O)(N1CCCCCC1)N1CCc2[nH]cnc2C1`, the “% Inhibition” value is listed as -4% and the Z score came out at 0.7.
Regarding `CC(C)c1nc([C@H](C)NCc2nc(C(C)C)n3ccccc23)n[nH]1`, the “% Inhibition” value is 3% and the Z score is reported as -0.5.
The corresponding values for `C#CC[C@@]1(C(=O)O)CCCCN1C(=O)OC(C)(C)C` are -12% and 2.24.
Take `CO[C@@](F)(C(=O)Nc1c(Cl)cccc1Cl)C(F)(F)F`: the “% Inhibition” value is given as -8% and the Z score stood at 1.55.
With `Cc1nn(C)c(C)c1[C@H]1OCC[C@@H]1CNC(=O)c1cc(O)ccn1`, the “% Inhibition” value is listed as -9% and the Z score is reported as 0.92.
Turning to `C[C@@H](C(=O)N1CCc2ccccc21)n1nc(-c2ccccc2)ccc1=O`, the “% Inhibition” value worked out at 3% and the Z score is on record as -0.58.
Consider `C[C@@H](c1nc(-c2cccs2)no1)N1CCNC(=O)C1`, for which the “% Inhibition” value is reported as -2% and the Z score is listed as 0.26.
In the case of `Cc1ccc(NC(=O)Cn2cnc3c(c2=O)CCCC3)cc1Cl`, the “% Inhibition” value was found to be 1% and the Z score is given as -0.13.
Consider `Cc1ccc(-n2nc(CCc3ccccc3)nc2[C@@H]2COCCO2)cc1C`, for which the “% Inhibition” value was -11% and the Z score is 1.79.
On to `COc1ccccc1CC(=O)Oc1c(C)nn(C)c1C`, for which the “% Inhibition” value was -4% and the Z score is listed as 0.57.
As for `O=C(COc1ccccc1)Nc1ccc([C@@H](O)[C@H]2COCC(=O)N2)cc1`, the “% Inhibition” value was 30% and the Z score was -3.5.
The matching figures for `O=C(Nc1cccnc1)c1ccc(S(=O)(=O)c2ccccc2)cc1`: -15% and 2.28.
With `Cc1ccc(C(=O)N[C@H](c2cccs2)C2CCOCC2)cc1F`, the “% Inhibition” value is 14% and the Z score was -1.85.
The corresponding values for `O=C(Nc1cccc2c1CCCC2)C1CCCC1` are -6% and 0.58.
For the compound `O=C(c1c(O)ccc2ccccc12)N1C[C@H]2C[C@H](O)[C@H](O)C[C@H]2C1`, the “% Inhibition” value is on record as -14% and the Z score was found to be 1.39.
The matching figures for `O=C(NC1CC1)[C@@H]1CCCN1c1ccnc(C2CCCC2)n1`: -20% and 3.3.
`Cc1nc(N2CCC[C@H](CNC(=O)c3ccco3)C2)ccc1F`: the “% Inhibition” value is given as -18% and the Z score worked out at 2.24.
As to `CCN1CCc2c(OCC(=O)N3CCC(Cc4ccccc4)CC3)cccc2C1=O`, the “% Inhibition” value is on record as 20% and the Z score was -3.44.
For `CCCCN(CC(N)=O)Cc1cc(F)ccc1OC`, the “% Inhibition” value is -2% and the Z score was determined as 0.33.
As for `O=C(NCCc1nccs1)[C@H]1C[C@@H](c2ccccc2)N2CCC[C@H]12`, the “% Inhibition” value came out at 0% and the Z score is listed as -0.07.
With `Oc1c(-n2cncn2)cnn1-c1ccc(OC(F)(F)F)cc1`, the “% Inhibition” value is given as 10% and the Z score is -1.33.
For `O=C(c1ccc2nccnc2c1)N1CCC[C@H]1c1nc(-c2ccccc2)no1`, the “% Inhibition” value is -9% and the Z score is recorded as 1.86.
`CCn1c(CCc2cccc(NS(=O)(=O)c3ccc4c(c3)CCCC4)c2)nc2ccccc21`: the “% Inhibition” value is -7% and the Z score turned out to be 0.85.
